Experimental data: PubChem BioAssay AID1963576 (National Center for Advancing Translational Sciences (NCATS), 2024)
The campaign covered roughly 46,000 compounds. About 60 (0.1%) were called active. About 3% were inconclusive and are not listed. Calls follow the shape of the dose curve; as a rule, active = well fitted inhibition curve with a large enough effect; inconclusive = small, poorly fitted or top-dose-only effect; inactive = no such curve, though single readings can be large or run the other way. This is one part of the list.

test: Primary qHTS assay for Inhibitors of ovarian cancer metastasis using an organotypic tumor microenvironment (TME) model.; also: nearly all actives have a fitted effect of over 65% in size;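 as to activity change, negative = inhibition: plate controls were DMSO wells for no effect and tomatine positive control wells for full effect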; conditions: SKOV3ip1-GFP adhesion/invasion on 3D omental model, fluorescence; series mostly up to 45.8 µM; activity change, negative = inhibition: at the top concentration
Method in brief: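 Primary human omental fibroblast/mesothelial 3D culture pre-formed 48 h. SKOV3ip1-GFP cells added with compounds (0.36-46 umol/L), incubated 2 h RT/16 h 37 C, fixed; GFP cells quantified at 488/509 nm.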

Activity change, negative = inhibition, inactive:
Cc1ccc(S(=O)(=O)c2cn(Cc3ccc(F)cc3)c3cc(N4CCCC4)c(F)cc3c2=O)cc1 2.76%
Cc1ccc(S(=O)(=O)N2CCC(n3c(C)nc4cccnc43)CC2)c(C)c1 -0.121%
Cc1[nH]c2ccccc2c1SCCNC(=O)c1ccccc1F -7.88%
CCOC(=O)C1CCCN(C(=O)c2[nH]c3ccccc3c2Sc2ccc(Cl)cc2)C1 (centres undefined) -33.9%
COC(=O)c1ccccc1-n1c(CCC(=O)O)ccc1-c1ccccc1 -2.16%
CC(C)Oc1ccc(CNC(=O)Cn2ncn3nc(-c4cccs4)cc3c2=O)cc1 -5.19%
Cc1ccnc(NS(=O)(=O)c2ccc(NC(=O)c3nc(SC(C)C)ncc3Cl)cc2)n1 -1.25%
COc1ccc(C(=O)NCC(c2ccco2)S(=O)(=O)c2cccs2)cc1OC (centres undefined) -6.84%
COc1ccc(NC(=O)C(CC(C)C)NS(=O)(=O)c2ccc3c(c2)oc(=O)n3C)cc1Cl (centres undefined) -7%
Cc1ccc(S(=O)(=O)c2nc(-c3ccccc3)oc2SCC(=O)NC2CCCCC2)cc1 -10.8%
O=C(Nc1ccc(F)c(Cl)c1)C1CCCN1S(=O)(=O)c1ccc(F)cc1 (centres undefined) 4.23%
COc1cccc(C2Nc3ccccc3-c3nnc(SCc4ccccc4)nc3O2)c1OC (centres undefined) -1.04%
CCOc1ccc(NC(=O)Cn2c(=O)n(Cc3nc(-c4ccccc4)no3)c(=O)c3ccccc32)cc1 35.8%
CCOC(=O)C1=C(CS(=O)(=O)c2ccc(C)c(C)c2)NC(=O)NC1c1ccccc1OCC (centres undefined) 25.2%
CC1CCCN(C(=O)Cn2c(=O)n(CC3CCC(C(=O)NC(C)C)CC3)c(=O)c3sccc32)C1 (centres undefined) -6.41%
Cn1c(-n2cccc2)c(-c2c(-c3ccc(F)cc3)[nH]c3c2c(=O)[nH]c(=O)n3C)c(=O)[nH]c1=O -2.5%
COCCNc1ccc(-c2nc(-c3cccc(C)c3)no2)cc1[N+](=O)[O-] -4.25%
COc1ccc(CCNC(=O)CSCc2nc(-c3ccc(OC)c(OC)c3)oc2C)cc1OC -5.45%
Cn1cc(-c2ccc3ncc(Cc4ccc5ncccc5c4)n3n2)cn1 -14.2%
COc1cccc(OC)c1Cn1nnc2c(=O)[nH]c(C3CCN(C(=O)c4ccccc4)CC3)nc21 6.52%
COc1ccc(-n2ncc3c2ncn2nc(-c4ccc(Cl)cc4Cl)nc32)cc1 2.75%
COc1ccccc1CNC(=O)c1cc2c(=O)n(Cc3cccs3)ccc2nc1C -4.92%
COc1cccc(-c2ccnc3[nH]n(-c4ccccc4)c(=O)c23)c1 -24.7%
CCOC(=O)c1c(NC(=O)c2nc(SC)ncc2Cl)sc(C)c1C 0.627%
CSc1ccc(CCNC(=O)c2ccc3c(c2)nc2n3CCOC2)cc1 -8.87%
CCOc1ccc(CCNC(=O)c2ccc3c(c2)N(Cc2cccc(Cl)c2)C(=O)c2ccccc2S3(=O)=O)cc1OCC -9.55%
CCOC(=O)c1ccc(NC(=O)CN2C(=O)CC(c3ccc(C)c(C)c3)=Nc3ccccc32)cc1 -30.4%
CCOC(=O)N1CCc2c(sc(NCc3sccc3C)c2C(=O)Nc2ccccc2OCC)C1 7.31%
CCN(Cc1ccccc1)C(=O)CCS(=O)(=O)c1ccc2c(c1)oc(=O)n2C 8.58%
COc1ccc2c(c1)c(=O)c(C(=O)c1ccc(Cl)cc1)cn2CC(=O)Nc1ccc2c(c1)OCO2 12.3%
CCOC(=O)c1scc(-c2ccc(C)cc2)c1S(=O)(=O)Nc1ccc(F)c(F)c1 -0.314%
Cn1c(=O)n(CCCc2ccccc2)c(=O)c2c1nc1n2CCN1c1ccccc1 10.8%
CCOc1cc(C2c3c(oc4ccccc4c3=O)C(=O)N2Cc2ccccc2Cl)ccc1O (centres undefined) -8.12%
Cc1sc(NC(=O)COc2ccc(C(C)(C)C)cc2)c(C(=O)OC(C)C)c1C -2.44%
Cc1cc(-c2nc3ccccc3s2)ccc1NC(=O)c1cc(Cl)ccc1Cl 3.46%
COc1ccc(NC(=O)N(Cc2ccco2)C2CCN(C(C)=O)CC2)c(OC)c1 3.5%
COc1ccc(CNC(=O)C2CCN(S(=O)(=O)c3cn(C)cn3)CC2)cc1 -17.6%
Cc1ccc(-c2noc(C3CC(=O)N(c4ccc5c(c4)OCCO5)C3)n2)cc1 (centres undefined) 6.03%
Cc1cc(NC(=O)Nc2ccc(N(C)C)cc2)c2cc(F)cc(F)c2n1 -6.25%
CCOc1ccc(NC(=O)c2cn3c4c(ccc(Cl)c4c2=O)OC(C)C3)cc1 (centres undefined) 2.02%
CCn1cc(C(=O)N2CCN(c3ccccc3)CC2)c(=O)c2cc(S(=O)(=O)N3CCC(C)CC3)ccc21 27.7%
COc1ccc(C2CC(=O)c3c([nH]c(C(=O)OCCOc4ccccc4)c3C)C2)cc1OC (centres undefined) -26.3%
COc1cccc(CNC(=O)c2cccn2-c2nnc(N3CCCC3)s2)c1 -5.82%
COc1cccc(NC(=O)C2CCN(S(=O)(=O)c3cc(-c4noc(C)n4)ccc3C)CC2)c1 -24.5%
COc1cc(-c2noc(-c3cc(C)[nH]n3)n2)cc(OC)c1OC -1.13%
COc1ccc(C2CC(=O)N(CC(=O)Nc3ccc(C(F)(F)F)cc3)c3ccccc3S2)cc1 (centres undefined) 3.64%

outcome, inactive:
CCOc1ccc(CCNC(=O)c2cc3sc(CC)cc3n2C)cc1OCC
O=C(NCc1ccccc1Cl)c1cc2cccc3c2n1CCS3
COc1cccc(CNC(=O)c2ccc3c(c2)nc2n3CCC(C)C2)c1OC (centres undefined)
COc1ccc(N(CC(=O)N2CCN(c3cccc(OC)c3)CC2)S(=O)(=O)c2c(C)noc2C)cc1
O=C(Cn1c(=O)ccc2cc(S(=O)(=O)N3CCCC3)ccc21)NCc1ccc(F)cc1
CN1C(=O)c2ccccc2Sc2ccc(NC(=O)COc3ccc(Cl)cc3)cc21
COc1cc(OC)c(NC(=O)c2ccc3c(Cl)c4c(nc3c2)CCCC4)cc1Cl
COc1ccc(Cl)cc1NC(=O)CSc1cn(CC(=O)N2CCCC2)c2ccccc12
Cc1ccc(NC(=O)c2ccc(F)c(S(=O)(=O)N3CCc4ccccc4C3)c2)cc1F
Cc1cc(NC(=O)CN2C(=O)CSc3ccc(S(=O)(=O)N(C)C)cc32)ccc1Br
Cc1c(Cl)cccc1NC(=O)NCCOCCn1c(=O)oc2ccccc21
CCc1ccc(N2C(=O)CS(=O)(=O)C23C(=O)N(Cc2ccccc2F)c2ccccc23)cc1 (centres undefined)
CCN1CCN(C(=O)c2cnn(-c3cccc(C)c3)c2C2CCN(C(=O)OC(C)(C)C)CC2)CC1
